From PubChem BioAssay AID2675 (National Center for Advancing Translational Sciences (NCATS), 2010)
Hit rate of the full screen: of about 280,000 compounds, about 100 (0.036%) were called active. The shares of active, inactive and inconclusive entries below differ from those in the screen. Calls follow the shape of the dose curve; as a rule, active = well fitted inhibition curve with a large enough effect in the signal ratio, with a control signal flat (not every such curve was filed as active); inconclusive = small, poorly fitted or top-dose-only effect, or effect the other way, or a change in a side signal; inactive = no such curve, though single readings can be large or run the other way; the % refers to the signal ratio. Potencies beside an inconclusive call are fits to weak or partial responses and may not hold up. A note “side channel” means that the fit belongs to a control or component signal, not to the main read-out.

Each compound was assayed against Muscleblind-like protein 1 (Homo sapiens) (UniProt Q9NR56) (assay: qHTS Assay for Inhibitors of MBNL1-poly(CUG) RNA binding). Details: TR-FRET MBNL1-His/biotin-(CUG)12 binding, 665/545 ratio; activity change, negative = inhibition: at 57.5 µM (top of the series).
Procedure, shortened: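 Inhibition of protein-RNA binding appears as loss of TR-FRET between terbium anti-His antibody on MBNL1-His and streptavidin-XL665 on biotin-(CUG)12. Activity is normalized to buffer-only and uninhibited-complex controls.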
% is scaled to controls: 0 for no effect and ±100 for the full control effect; potency is read from the fitted curve at half-maximal effect; tags tell the direction and shape of the fitted curve or compound fluorescence and quenching.

UniProt Q9NR56, sequence (Q9NR56 whole entry, looked up): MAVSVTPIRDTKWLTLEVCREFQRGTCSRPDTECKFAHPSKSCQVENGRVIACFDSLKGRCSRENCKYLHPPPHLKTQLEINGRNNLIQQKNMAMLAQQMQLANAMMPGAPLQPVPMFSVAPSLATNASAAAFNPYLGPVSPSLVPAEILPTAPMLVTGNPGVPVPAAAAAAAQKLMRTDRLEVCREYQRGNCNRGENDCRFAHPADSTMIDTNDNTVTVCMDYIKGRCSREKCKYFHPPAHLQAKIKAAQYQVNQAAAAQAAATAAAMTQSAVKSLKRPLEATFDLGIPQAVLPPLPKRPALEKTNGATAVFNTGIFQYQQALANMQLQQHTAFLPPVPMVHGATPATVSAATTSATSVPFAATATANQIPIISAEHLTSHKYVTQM

**Q.** For `O=C(CNc1ccccc1)NNC1=NCCC1`, which Potency is on record?
**A.** The Potency was inconclusive: 0.794 µM [quencher, side channel, single point].

**Q.** How did the Potency turn out when `COc1cc(/C=C2\SC(c3ccc(C)cc3)=NC2=O)cc(OC)c1O` was run?
**A.** Its Potency is inconclusive: 20 µM [quencher, side channel, partial curve].

**Q.** How did the “activity change, negative = inhibition” value turn out when `O=c1[nH]c(/C=C/c2ccccc2Cl)nc2ccccc12` was run?
**A.** The value was inactive: 1.94%.

**Q.** `Cc1ccccc1-c1nnc(CN2CCN(C(=O)c3ccco3)CC2)o1` was tested. Which “activity change, negative = inhibition” value did it give?
**A.** The value was inactive: -6.98%.

**Q.** With `Cc1ccc(C(=O)CCS(=O)(=O)c2ccc(F)cc2)cc1` as the compound, how does the “activity change, negative = inhibition” value read?
**A.** The value was inactive: -0.849%.

**Q.** Which “activity change, negative = inhibition” value does the source give for `Cc1cccc2c1OCC/C2=N\NC(=O)COc1ccccc1` here?
**A.** Its value is inactive: -5.6%.

**Q.** `COc1ccc(-c2cc(-c3ccccc3O)[nH]n2)cc1OC` was tested. Which “activity change, negative = inhibition” value did it give?
**A.** The value was inactive: -11.9%.

**Q.** With `CC(=O)Nc1ccc(OCC=C(Cl)Cl)cc1` as the compound, how does the Potency read?
**A.** The Potency was inconclusive: 3.98 µM [quencher, side channel, single point].

**Q.** With `Cn1c(O)c(N=NC(=O)CNC(=O)c2ccccc2)c2cc(Br)ccc21` as the compound, how does the Potency read?
**A.** Its Potency is inconclusive: 5.62 µM [quencher, side channel, partial curve].

**Q.** Which Potency does the source give for `Cc1cc2c(nn1)CCc1c-2no[n+]1[O-]` here?
**A.** The Potency was inconclusive: 20 µM [quencher, side channel, partial curve].

**Q.** With `CCN1C(=NCC(C)C)N[C@@H](c2ccccc2)[C@H](C(=O)OC)[C@H]1C` as the compound, how does the “activity change, negative = inhibition” value read?
**A.** The value was inactive: -0.511%.

**Q.** With `COc1ccc(-c2nc3ccc([N+](=O)[O-])cc3[nH]2)cc1` as the compound, how does the Potency read?
**A.** The Potency was inconclusive: 11.2 µM [quencher, side channel, partial curve].

**Q.** Which “activity change, negative = inhibition” value does the source give for `CS(=O)(=O)N(Cc1ccc(C(=O)NC2CCCC2)cc1)c1ccccc1` here?
**A.** The value was inactive: -9.7%.

**Q.** How did the Potency turn out when `Cc1ccc(NC(=O)COC(=O)CNC(=O)c2ccc(Br)cc2)c(C)c1` was run?
**A.** The Potency was inconclusive: 39.8 µM [fluorescent, side channel, single point].

**Q.** `CN(C)CCCN(C(=O)c1ccc([N+](=O)[O-])o1)c1nc2cc3c(cc2s1)OCO3` was tested. Which Potency did it give?
**A.** Its Potency is inconclusive: 39.8 µM [quencher, single point].

**Q.** `CCOc1ccc(NC(=S)NCC(c2cccnc2)N2CCOCC2)cc1` (centres undefined) was tested. Which “activity change, negative = inhibition” value did it give?
**A.** The value was inactive: 5.39%.

**Q.** With `CCOC(=O)C1CCCN(CC(=O)Nc2cc(C)cc(C)c2)C1` (centres undefined) as the compound, how does the “activity change, negative = inhibition” value read?
**A.** The value was inactive: 0.456%.

**Q.** `COCCCNC(=S)Nc1ccc2c(c1)OCCO2` was tested. Which Potency did it give?
**A.** Its Potency is inconclusive: 35.5 µM [fluorescent, side channel, partial curve].

**Q.** With `O=C(/C=C/c1ccccc1)/C=C/c1ccccc1` as the compound, how does the “activity change, negative = inhibition” value read?
**A.** Its value is inactive: 4.43%.

**Q.** With `COc1ccc(Nc2n[nH]c(C)c2[N+](=O)[O-])cc1` as the compound, how does the Potency read?
**A.** Its Potency is inconclusive: 11.2 µM [quencher, side channel, partial curve].

**Q.** For `S=C(Nc1cccc(Cl)c1)Nc1cccc2cnccc12`, which Potency is on record?
**A.** The Potency was inconclusive: 22.4 µM [activator, single point].

**Q.** `O=C1c2ccc3c4c(ccc(c24)C(=O)N1NC(=O)C(F)(F)F)CC3` was tested. Which Potency did it give?
**A.** The Potency was inconclusive: 15.8 µM [quencher, side channel, partial curve].

**Q.** `COc1ccc(CC(=O)NCc2ccccn2)cc1OC` was tested. Which “activity change, negative = inhibition” value did it give?
**A.** The value was inactive: 4.53%.

**Q.** With `COc1ccc(C(=O)N/C(=C\c2cn(C)c3ccccc23)C(=O)NCCN2CCOCC2)cc1OC` as the compound, how does the Potency read?
**A.** Its Potency is inconclusive: 20 µM [quencher, side channel, partial curve].

**Q.** With `Cc1nc([N+](=O)[O-])cn1-c1nc2ccccn2c1[N+](=O)[O-]` as the compound, how does the Potency read?
**A.** The Potency was inconclusive: 15.8 µM [quencher, side channel, partial curve].

**Q.** `O=C(O)c1cc([N+](=O)[O-])c(Sc2nc3ccccc3[nH]2)c([N+](=O)[O-])c1` was tested. Which Potency did it give?
**A.** The Potency was inconclusive: 12.6 µM [quencher, side channel, partial curve].

**Q.** `O=C(O)c1cc(=O)n(Cc2ccccc2)c(=O)[nH]1` was tested. Which “activity change, negative = inhibition” value did it give?
**A.** The value was inactive: -1.76%.

**Q.** With `CCC(C)N(C(=O)COC(=O)CNC(=O)c1sc2ccccc2c1Cl)C1CCS(=O)(=O)C1` (centres undefined) as the compound, how does the Potency read?
**A.** Its Potency is inconclusive: 28.2 µM [quencher, side channel, single point].

**Q.** For `O=C(CN1C(=O)N/C(=C\c2ccccc2OCc2ccc(C(=O)O)cc2)C1=O)Nc1ccc(F)cc1`, which Potency is on record?
**A.** The Potency was inconclusive: 25.1 µM [quencher, side channel, partial curve].

**Q.** How did the “activity change, negative = inhibition” value turn out when `COC(=O)c1cc(NC(=S)NC(=O)c2ccccc2)ccc1N1CCOCC1` was run?
**A.** Its value is inactive: -7.73%.

**Q.** With `N/C(=N\OC(=O)c1cccc2ccccc12)c1cccnc1` as the compound, how does the Potency read?
**A.** Its Potency is inconclusive: 20 µM [quencher, side channel, single point].

**Q.** With `COCC(C)n1c(C)cc(C(=O)Cn2nc(C(=O)O)c3ccccc3c2=O)c1C` (centres undefined) as the compound, how does the Potency read?
**A.** The Potency was inconclusive: 22.4 µM [quencher, side channel, single point].

**Q.** With `COC(=O)/C=c1\sc2n(c1=O)C(C)=CC(C)(C)N=2` as the compound, how does the Potency read?
**A.** The Potency was inconclusive: 15.8 µM [quencher, single point].

**Q.** With `Oc1ccccc1/C=N/c1c(-c2ccco2)nc2ccccn12` as the compound, how does the Potency read?
**A.** Its Potency is inconclusive: 17.8 µM [quencher, side channel, partial curve].

**Q.** For `O=C(c1cc([N+](=O)[O-])ccc1Cl)N1CCN(c2ccccn2)CC1`, which Potency is on record?
**A.** Its Potency is inconclusive: 11.2 µM [quencher, side channel, partial curve].

**Q.** Which “activity change, negative = inhibition” value does the source give for `COc1ccc(C)cc1NC(=S)N1CC(C)OC(C)C1` (centres undefined) here?
**A.** The value was inactive: -5.62%.

**Q.** How did the Potency turn out when `O=C(c1ccc(Br)cc1)c1cc2ccc(O)cc2oc1=O` was run?
**A.** The Potency was inconclusive: 25.1 µM [quencher, side channel, single point].

**Q.** How did the “activity change, negative = inhibition” value turn out when `S=C1NC[C@H](CC2CCCCC2)N1CCc1cccc2ccccc12` was run?
**A.** The value was inactive: -6.39%.

**Q.** For `CCOc1cc(/C=N/NC(=O)c2ccncc2)cc(Cl)c1OS(C)(=O)=O`, which Potency is on record?
**A.** Its Potency is inconclusive: 10 µM [quencher, side channel, partial curve].

**Q.** Which Potency does the source give for `CC(C)(C)n1nnnc1C(c1cccs1)N1CCCC2(CCCCC2)C1` (centres undefined) here?
**A.** Its Potency is inconclusive: 39.8 µM [quencher, side channel, single point].

**Q.** How did the “activity change, negative = inhibition” value turn out when `CCOc1cc(C(=S)N2CCOCC2)ccc1OC` was run?
**A.** Its value is inactive: -3.22%.

**Q.** Which Potency does the source give for `O=C(C1=C(O)C(=O)N(CCN2CCOCC2)C1c1cccc(O)c1)c1cc2ccccc2o1` (centres undefined) here?
**A.** The Potency was inconclusive: 28.2 µM [quencher, partial curve].

**Q.** For `Cc1ccc(C)c2nc3sc(C(=O)N4CCOCC4)c(N)c3cc12`, which “activity change, negative = inhibition” value is on record?
**A.** The value was inactive: -1.11%.

**Q.** Which Potency does the source give for `CCc1cccc2c(C(=O)COC(=O)c3ccc([N+](=O)[O-])s3)c[nH]c12` here?
**A.** The Potency was inconclusive: 10 µM [quencher, side channel, partial curve].
